The supplement of paper PMC11880418
Where a name gives a salt, the structure may show the parent alone. Some of the results follow. The data scatter; read single values as rough.

Test system: PANC1
Assay: ALDHbr (CSC) cell proportion score relative to DMSO vehicle (ratio to DMSO); breast (SUM159) / gastric (MKN45) / pancreatic (PANC1) / colon cancer lines; ALDHbr cells have high ALDH activity and are rich in cancer stem cells (CSC); higher = more CSC (ALDHbr) cells remaining
Settings: 10 µM; 72 h
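Further: High-content imaging of ALDEFLUOR-stained cells with Hoechst-labelled nuclei in 384-well plates, triplicate wells, scored as Z-score against 0.1% DMSO vehicle, negative meaning fewer ALDHbr cells.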

| SMILES | ALDHbr |
| --- | --- |
| N=C(N)NC(=O)Cc1c(Cl)cccc1Cl [Guanfacine hydrochloride] | 0.981 |
| CCc1cc(C(N)=S)ccn1 [Ethionamide] | 1.01 |
| C[C@@H]1C[C@H]2[C@@H]3C[C@H](F)C4=CC(=O)C=C[C@]4(C)[C@@]3(F)[C@@H](O)C[C@]2(C)[C@@]1(O)C(=O)CO [Flumethasone] | 0.656 |
| CC(CCc1ccccc1)NCC(O)c1ccc(O)c(C(N)=O)c1 (configuration not stated) [Labetalol hydrochloride] | 0.769 |
| CCn1cc(C(=O)O)c(=O)c2cnc(N3CCNCC3)nc21 [Pipemidic acid] | 0.9 |
| Cc1noc(NS(=O)(=O)c2ccc(N)cc2)c1C [Sulfisoxazole] | 0.908 |
| CC1CCc2c(N3CCC(O)CC3)c(F)cc3c(=O)c(C(=O)O)cn1c23 (configuration not stated) [Nadifloxacin] | 0.811 |
| CC(=O)OCC(=O)[C@@]12OC(C)(C)O[C@@H]1C[C@H]1[C@@H]3C[C@H](F)C4=CC(=O)C=C[C@]4(C)[C@@]3(F)[C@@H](O)C[C@@]12C [Fluocinonide] | 0.686 |
| CCN[C@H]1CN(CCCOC)S(=O)(=O)c2sc(S(N)(=O)=O)cc21 [Brinzolamide] | 0.875 |
| NC(=O)OCC(COC(N)=O)c1ccccc1 [Felbamate] | 1 |
| CCCC(=O)Nc1ncnc2c1ncn2[C@@H]1O[C@@H]2COP(=O)(O)O[C@H]2[C@H]1OC(=O)CCC [Bucladesine sodium salt] | 1 |
| C/C(=C\C(=O)OCCCCCCCCC(=O)O)C[C@@H]1OC[C@H](C[C@@H]2O[C@H]2[C@@H](C)[C@H](C)O)[C@@H](O)[C@H]1O [Mupirocin] | 0.54 |
